# Measurements taken from PubChem BioAssay AID488969 (Vanderbilt High Throughput Screening Facility, 2010).
# Over roughly 110,000 compounds, “z-score” has its median near -0.1; the highest 2% begin near 2. The list shows a part of the results.
# Molecular target: Metabotropic glutamate receptor 8 (Rattus norvegicus) (UniProt P70579)
# Experiment: rat mGluR8 modulators via GIRK flux, primary screen, cell-based, thallium flux, HTS (AID 488969)
# Details: HEK293 rat mGluR8, GIRK (G protein-gated inwardly rectifying potassium channel) thallium flux, FluoZin2; at 10 µM; stronger effect = higher value
# Chain of UniProt P70579 (P70579 whole entry, looked up): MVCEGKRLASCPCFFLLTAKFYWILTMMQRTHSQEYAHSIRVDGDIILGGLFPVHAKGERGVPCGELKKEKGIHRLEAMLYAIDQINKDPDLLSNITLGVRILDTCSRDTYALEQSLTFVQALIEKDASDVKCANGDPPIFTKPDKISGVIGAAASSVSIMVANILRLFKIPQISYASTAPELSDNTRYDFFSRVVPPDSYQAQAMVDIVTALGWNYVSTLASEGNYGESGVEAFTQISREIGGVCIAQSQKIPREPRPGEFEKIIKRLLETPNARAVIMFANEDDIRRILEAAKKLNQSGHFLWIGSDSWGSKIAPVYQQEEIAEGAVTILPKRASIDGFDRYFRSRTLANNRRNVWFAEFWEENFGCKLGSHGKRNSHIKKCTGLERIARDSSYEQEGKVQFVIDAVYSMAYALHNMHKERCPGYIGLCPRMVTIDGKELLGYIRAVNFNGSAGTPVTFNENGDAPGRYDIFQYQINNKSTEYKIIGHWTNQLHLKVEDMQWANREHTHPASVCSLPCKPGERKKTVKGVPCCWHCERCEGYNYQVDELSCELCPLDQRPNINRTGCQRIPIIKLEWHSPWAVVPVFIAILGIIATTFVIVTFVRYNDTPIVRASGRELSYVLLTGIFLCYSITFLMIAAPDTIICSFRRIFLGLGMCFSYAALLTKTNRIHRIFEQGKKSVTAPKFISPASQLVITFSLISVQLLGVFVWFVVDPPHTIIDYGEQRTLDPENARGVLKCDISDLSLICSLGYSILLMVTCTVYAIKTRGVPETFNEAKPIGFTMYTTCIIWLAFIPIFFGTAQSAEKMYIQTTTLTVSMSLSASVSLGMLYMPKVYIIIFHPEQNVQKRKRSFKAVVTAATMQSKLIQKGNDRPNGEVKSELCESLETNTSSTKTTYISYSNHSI
row,SMILES,z-score
1,O=C(CCC(=O)N1CCC2(CC1)OCCO2)Nc1nnc(C(F)(F)F)s1,0.567
2,CC(C)(C)c1nc(NCc2ccc3c(c2)OCO3)c2nnn(Cc3ccccc3Cl)c2n1,-0.271
3,COc1ccc(N2C(=O)CC(=O)NC2=O)cc1,0.662
4,COc1ccc2c(c1OC)C(=O)OC2c1c(O)n(C2CCCCC2)c(=O)[nH]c1=O (stereo not given),-0.0412
5,CCOc1ccc(Cc2c(O)[nH]c(=O)[nH]c2=O)cc1,0.236
6,CN(C)CCN=Cc1c(O)n(-c2cccc3ccccc23)c(=O)[nH]c1=O,0.131
7,C=CCOC(=O)C1=C(C)OC(N)=C(C#N)C12C(=O)N(CN1CCOCC1)c1ccccc12 (stereo not given),0.229
8,CCOP(=O)(OCC)C(NC(=O)c1cccc2ccccc12)C(Cl)(Cl)Cl (stereo not given),-0.135
9,OC(C#CCN1CCOCC1)(c1ccccc1)C1CCCC1 (stereo not given),0.256
10,O=C(c1cc2nc(-c3ccccc3)cc(-c3ccccc3)n2n1)N1CCC2(CC1)OCCO2,-0.525
11,O=C(c1cc(S(=O)(=O)N2CCCCC2)ccc1F)N1CCC2(CC1)OCCO2,-0.0595
12,CCn1c(O)c(C=NCCc2c[nH]c3ccccc23)c(=O)[nH]c1=O,-0.11
13,COC(=O)c1cc2c(s1)=NC=NP=2(N1CCOCC1)N1CCOCC1,-0.0368
14,CCC(=NCc1ccco1)c1c(O)n(-c2ccccc2)c(=O)[nH]c1=O,0.931
15,CCN1c2nc3ccccn3c(=O)c2CC2(C(=O)N(C)C(=O)N(C)C2=O)C1C (stereo not given),-0.132
16,CN(C)C1=NP(N(C)C)(N(C)C)=NC(c2ccccc2)=N1,-0.205
17,COc1cc2[nH]c(=O)n(-c3cccc(Cl)c3)c(=O)c2cc1OC,-0.0317
18,C=C1N2CCC(CC2)C1(O)c1ccc(C)c(C)c1 (stereo not given),-0.222
19,CCc1ccccc1N1C(=O)NC(=O)/C(=C\c2cc(C)n(C)c2C)C1=O,-0.0589
20,COc1cc2[nH]c(=O)n(-c3ccc(C)cc3)c(=O)c2cc1OC,0.336
21,O=C(C1CC(c2ccc(Cl)c(Cl)c2)=NO1)N1CCC2(CC1)OCCO2 (stereo not given),0.509
22,O=C(c1csc2c1CCCCC2)N1CCC2(CC1)OCCO2,-0.477
23,O=C(C1CCCN(c2nnc(-n3cccc3)s2)C1)N1CCC2(CC1)OCCO2 (stereo not given),0.546
24,O=C1NC(=O)N(Cc2ccccc2)C(=O)/C1=C\N1CCCc2ccccc21,-0.564
25,CC(C)OP(=O)(OC(C)C)C(O)c1ccc(Br)cc1 (stereo not given),-0.199
26,O=c1[nH]c(=O)n(Cc2ccc(F)cc2)c(O)c1C=NCCCN1CCOCC1,-0.214
27,OC(c1ccc(F)cc1)C(c1ccccc1)N1CCOCC1 (stereo not given),-0.185
28,Cn1cc(C(=O)Cc2ccccc2)c2ccccc21,0.166
29,O=C1NC(=O)C(CCc2ccncc2)(c2ccccc2)C(=O)N1,-0.000398
30,CCOc1cccc(N2C(=O)CC(=O)NC2=O)c1,0.173
